Variants at the floor of the assay are shown more often than the library holds them.

The labels stand for the following.
B1: tRNA (parent)
chain: CUCUCGGUAGCCAAGUUGGUUUAAGGCGCAAGACUUUAAUUUAUCACUACGAAAUCUUGAGAUCGGGCGUUCGACUCGCCCCCGGGAGAUUUUUUCCUCGAGCAA

In the data set the parent is B1. Nature of the data set: nonsense suppression (GFP-seq) (ratio to wild type); higher = more function; SUP4oc tRNA, yeast GFP reporter sort-seq. An outline of the steps: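 Raffinose/galactose medium with 80 mg/L adenine was used to grow yeast carrying genome-integrated tRNA variants (~3% random-mutation library), RFP, and a galactose-driven GFP ochre reporter. Cells went into GFP/RFP bins, which were Illumina-sequenced, and variants with ≥100 reads and ≥30 cells were scored. Nonsense suppression (GFPSEQ) is the per-bin median GFP/RFP weighted by estimated cell share and expressed relative to the unmutated parent tRNA.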
On to CUCUCGGUAGCCAAGUUGGUUUAAGGCGCAAGACUUUAAUUUAUCACUACGAAAACUUGCGAUCGGGCGUUCGAUUCCGCCCCGGGAGGUUUUUUCCUCGAGCAA, for which the nonsense suppression was no more than 0.026.

CUCUCGGUAGCCAAGUUGGUUUAAGGCGUAAGACUUUAAUUUAUCACUACGAAAUCUUGAGAUCGGGCGUUCGACUCGCCCCCGAGAGAUUUUUUCCUCGAGCAA: the nonsense suppression worked out at 1.14. The value for CUCUCGGUAGCCAAGUUGGUUUAAGGCGCAAGACUUUAAUUUAUCACUACGAAAUGUUGAUAUCGGGCGUUCGACUCGCCCCCGGGAGAUUUUUUCCUCGAGCAA was no more than 0.026; that for CUCUCGGUAGCCAAGUUGGUUUAAGGCCCAAGUCUUUAAUUUAUCACUACGAAAUCUUGAGAUCGGGCGUUCGACUCGCCCCCGGGAGAUUUUUUCCUCGAGCAA was no more than 0.026. To CUCUCGGUAGCCAAGUUGGUUUAAUGCGCCAGACUUUAAUUUAUCACUACGAAAUCUUGAGAUCGGGCCAUCGACUCGCCCCCGGGAGAUUUUUUCCUCGAGCAA belongs no more than 0.026; to CUCUCCGUAGCCAAGUUGGUUUAAGGCGCAAGACUUUAAUUUAUCACUACGAAAUCCUGAGAUCGGGCGUUCGACUCGCCCCCGAGAGAUUUUUUCCUCGAGCAA, no more than 0.026.

On to CCCUCGGAAGCCAAUUUGGUUUAAGGCGCAAGACUUUAAUUUAUCACUACGAAAUAUUGAGAUCGGGCGUUCGACUCGCCCCCGGGAGAUUUUUUCCUCGAGCAA, for which the nonsense suppression is no more than 0.026. Consider CUCUCGGUAGCCAAGUUGGUUUAAGGCGCAAGACUUUAAUUUAUCACUACGAAAUCUUGAGAUCGGGCGUUCGACGCGCCCCCGGGGGAUUUUUUCCUCGAGCAA, for which the nonsense suppression was no more than 0.026. To CUCUCGGUAGCCAAGUUGGUUUAAGGCGCAAGACUUUAAUUUAUCACUACGAAACCUUGAGAUCGGGCGUUCGACUCGCCCCCGGGAGAUUUUUUCCUCGAGCAA belongs 1.09; to CUCUCGGUCGCCAAGUUGGUUUAAGGCGCAAGACUUUAAUUUAUCACUACGAAAUCUUGACAUCGGGCGUUCGACUCGCCCCCGGGAGAUUUUUUCCUCGAGCAA, 0.791; to CUCUAGGUAGCCAAGUUGGUUCAAGGCGCAAGACUUUAAUUUAUCACUACGAAAUCUUGAGAUCGGGCGUUCGACUCGCCCCCGGGAGAUUUUUUCCUCGAGCAA, no more than 0.026.

As for CUCUCGGUAGCCAAGUUGGUUUUAGGCGCAAGACUUUAAUUUAUCACUACGAAAUCUUGAGAUCGGGCGUUCGACUCGCCCCAGGGAGAUUUUUUCCUCGAGCAA, the nonsense suppression is no more than 0.026. The value for CUCUCGGUAGCCAAGUUGGUUUAGGGCGCAAGACUUUAAUUUAUCACUACGAAAUCUUGAGAUCGGACGUUCGACUCGCCCCCGGGAGAUUUUUUCCUCGAGCAA was no more than 0.026.

Consider CUUUCGGUAGCCAAGUUGGUUUAAGGCGCAAGAGUUUAAUUUAUCACUACGAAAUCUUGAGAUCGGGCGUUUGACUCGCCUCCGGGAGAUUUUUUCCUCGAGCAA, for which the nonsense suppression was no more than 0.026. To CUCUCGGUAGCCAAGUUGGGUUAAGGCGCAAGACUUUAAUUUAUCACUACGAAAUCUUGAGAUCGGGCGUUCGACUCGCCCUCGGGAGAUUUUUUCCUCGAGCAA belongs 0.838.

Consider CUCUCGGUAGCCAAGUUGGUUUAAGGCGCAAGACUUUAAUUUAUCACUACGAAAUCUUGAGAUCGGGCGUCCGACUCGCCCCCCGGAGAUUUUUUCCUCGAGCAA, for which the nonsense suppression was no more than 0.026. For the variant CUCUCGGUAGCCAAGUUGGUUGAAGGCGCAAGACUUUAAUUUAUCACUACGAAACCUUGAAAUCGGGCGUUAGACUCGCCCCCGGGAGAUUUUUUCCUCGAGCAA, the nonsense suppression was no more than 0.026. The value for CUCUCGGUAGCCCAGUUGGUUUAAGGCGGAUGACUUUAAUUUAUCACUACGAAAUCUUGAGAUCGGUCGUUCGACUCGCCCCCGGGAGAUUUUUUCCUCGAGCAA was no more than 0.026; that for CUCUCGGUAGCCAAGUUGGUUUAAGGCGCAAGACUUUAAUUUAUCACUACGAAAUCUUGAGAUCGGGCCUUCGACUCGCCCCCGGGAGGUUUUUUCCUCGAGCAA was no more than 0.026; that for GUCUCGGUAGCCAAGUUGGGUUAAGGCGCAAGAGUUUAAUUUAUCACUACGAAAUCUUGAGAUCGGGCGUUCGACUCGCCCCCGGGAGAUUUUUUCCUCGAGCAA was no more than 0.026.

For the variant CUCUCGGUAGCCAAGUUGGUUUAAGGCGCACAACUUUAAUUUAUCACUACGAAAUAUUGAGAUCGGGCGUUCGAAUCGCCCCCGGGAGAUUUUUUCCUCGAGCAA, the nonsense suppression is no more than 0.026. To CUCUCGGUAGCCGAGUUGGUUUAAGGCGCAAGACUUUAAUUUAUCACUACGAAAUCUUGAGAUCUGCCGUUCGACUCGCCGCCGGGAGAUUUUUUCCUCGAGCAA belongs no more than 0.026; to CUCUCGGUAGCCAAGGUGGUUUAAUGCGCAAGACUUUAAUUUAUCACUACGAAAUCUUGAGAUCGGGCGUUCGACUCGCCCCCGGGAGAUUUUUUCCUCGAGCAA, no more than 0.026. To CUCUCGGUAGCUAAGUGGUUUUAAGGCGCACGACUUUAAUUUAUCACUACGAAAUCUUGAGAUCGGGCGUUCGACGCGCCCCCGGGAGAUUUUUUCCUCGAGCAA belongs no more than 0.026; to CUCUCGGUAGCCAAGUUGGUUUUAGGCGCAACACUUUAAUUUAUCACUACGAAAUCUUGAGAUCGGGCGUUCGACUCGCCGCCGGGAGAUUUUUUCCUCGAGCAA, no more than 0.026; to CUCUCGGUACUCAAGUUGGUUUAAGUCGCAAGACUUUAAUUUAUCACUACGAAAUCUUGAGAUCGUGCGUUCGACUCGCCCCCGGGAGAUUUUUUCCUCGAGCAA, no more than 0.026. The value for CUCUCGGUAGCCAAGUUGGUUUAAGGCGCCAGACUUUAAUUUAUCACUACGAAACCUUGAGAUCGGGCGUUCGAGUCGCCCGCGGGAGAUUUUUUCCUCGAGCAA was no more than 0.026.

Source of the values: the RNAGym collection of RNA variant scans (doi:10.1101/gad.245936.114).
